# From ChEMBL document CHEMBL4513135, “CO-ADD screening of IQOG CSIS (Spain) compounds”
# Values joined by “and” are separate entries in the source; they are usually repeats but may differ in a detail not shown here. Equal entries are not always repeated. This is one part of the list. Measured potencies and affinities stand elsewhere.
# System: Pseudomonas aeruginosa
# Details: Concentration 32 ug.mL-1, ASSAY_TEST Inhibition of Bacterial Growth, detection method Absorption (OD600), MEDIA CAMHB, plate type 384well, NBS, CORNING #3640, time 18 hr
compound,measurement,setting,value
Cl.Nc1c2c(nc3c1C(c1ccccc1)c1ccc4ccccc4c1O3)CCCC2 (stereo not given),Inhibition,,43.11%
O=C(NNCCc1ccccc1)c1cc2ccccc2[nH]1,Inhibition,,17.16%
C#CCN(C)Cc1cc2cc(OCCCC3CCN(C(=O)OC(C)(C)C)CC3)ccc2n1C,Inhibition,,-3.3%
COc1ccc(C2c3c(nc4c(c3N)CCCC4)Oc3ccc4ccccc4c32)cc1OC (stereo not given),Inhibition,,13.3%
CC(=O)Oc1ccc(C=C2N=C(c3ccccc3)OC2=O)c(OC(C)=O)c1,Inhibition,,-2.97%
O=C(Cc1cccc2ccccc12)N/N=C/c1c[nH]c2ccccc12,Inhibition,,10.97%
O=C1OC(c2ccc([N+](=O)[O-])cc2)=NC1=Cc1ccccc1,Inhibition,,13.7%
CCOC(=O)C1=C(C)OC(N)=C(C#N)C1c1ccco1 (stereo not given),Inhibition,,1.21%
C/C(Cc1ccccc1)=N/NC(=O)c1c[nH]c2ccc(O)cc12,Inhibition,,34.85%
COc1cc(C=NNC(=O)Cc2c[nH]c3ccccc23)ccc1O,Inhibition,,11.8%
CCOC(=O)c1c[nH]c2ccc(OC)cc12,Inhibition,,8.77%
COc1ccc2cc(C3C4=C(CC(C)(C)CC4=O)Oc4nc5c(c(N)c43)CCC5)c(Cl)nc2c1 (stereo not given),Inhibition,,20.96%
Cc1nn(-c2ccccc2)c2ncnc(NCc3ccccc3)c12,Inhibition,,36.14%
COC1=C(C#N)C(c2ccccc2)C(C=O)=C(Cl)N1 (stereo not given),Inhibition,,7.7%
CN(C)c1ccc(C(=NNC(=O)c2cc3ccccc3[nH]2)c2ccc(N(C)C)cc2)cc1,Inhibition,,19.91%
CC(=O)Nc1n[nH]c2nc(N)c(C#N)c(-c3ccccc3)c12,Inhibition,,16.91%
COC(=O)C(=Cc1ccccc1)NC(=O)c1ccccc1,Inhibition,,32.35%
Cn1ccnc1C1c2c(nc3c(c2N)CCC3)Oc2ccc3ccccc3c21 (stereo not given),Inhibition,,37.14%
CC1CC(=O)Nc2c1c(Cl)nc1nc3c(c(N)c21)CCCC3 (stereo not given),Inhibition,,31.73%
O=C(N/N=C/c1cccc(Cl)c1)c1cc2ccccc2[nH]1,Inhibition,,-3.63%
CCOC(=O)/C(C#N)=C\c1ccc(Cl)cc1,Inhibition,,10.52%
CN(N=O)C(=O)NC1(C(=O)O)CC1c1ccccc1 (stereo not given),Inhibition,,47.22%
CN(C)c1nc(N)c(C#N)c(-c2ccccc2)c1C#N,Inhibition,,8.2%
N#Cc1c(N)nc(NC2CCN(Cc3ccccc3)CC2)c(C#N)c1-c1ccccc1,Inhibition,,13.07%
C#CCNc1nc(NCCC2CCN(Cc3ccccc3)CC2)c(C#N)cc1C#N,Inhibition,,1.56%
CN1C/C(=C\Cl)n2c1c(C#N)c(-c1ccccc1)c(C#N)c2=O,Inhibition,,-1.85%
N#Cc1c(-c2cccc([N+](=O)[O-])c2)c2ccc3ccccc3c2oc1=O,Inhibition,32 ug/mL,3.83% and -14.72% and 0.07%
CC#CCN(Cc1ccccc1)c1nc(N)c(C#N)c(-c2ccccc2)c1C#N,Inhibition,,11.74%
COc1ccccc1C1c2ccc3ccccc3c2Oc2nc3c(c(N)c21)CCCC3 (stereo not given),Inhibition,,32.54%
COC(=O)C1CCN(Cc2ccccc2)CC1,Inhibition,,20.53%
CCCCNNC(=O)c1cc2ccccc2[nH]1,Inhibition,,4.89%
NNC(=O)c1cc2ccccc2n1Cc1ccccc1,Inhibition,,-0.35%
COc1cccc(C2c3c(nc4c(c3N)CCCC4)Oc3ccc4ccccc4c32)c1 (stereo not given),Inhibition,,38.82%
Cl.N#Cc1c(Cl)nc(N)nc1NCCO,Inhibition,,8.66%
CS(=O)(=O)O[C@H]1CC[C@H](OS(C)(=O)=O)CC1,Inhibition,,24.01%
N#CC1=C(Cl)Oc2c(ccc3ccccc23)C1c1cccc([N+](=O)[O-])c1 (stereo not given),Inhibition,,-4.99%
CSC1=NC(=Cc2cn(C)c3ccccc23)C(=O)N1C,Inhibition,,13.66%
N#CC1=C(N)NC(=O)CC1c1ccccc1 (stereo not given),Inhibition,,19.7%
C#CCN(C)Cc1cc2cc(OCCCC3CCN(Cc4ccc(OC)c5ncccc45)CC3)ccc2n1C,Inhibition,,-0.76%
CCOC(=O)C1=C(C)OC(N)=C(C#N)C1c1ccc(F)cc1 (stereo not given),Inhibition,,29.82%
Cl.ClCCCCCN1CCCCC1,Inhibition,,14.93%
N#CC1(Br)C(=N)Oc2ccc3ccccc3c2C1c1ccccc1 (stereo not given),Inhibition,32 ug/mL,1.54% and 11.09%
Cl.ClCCCCN1CCCCC1,Inhibition,,1.16%
Cc1ccc(C2c3c(nc4c(c3N)CCCC4)Oc3ccc4ccccc4c32)cc1 (stereo not given),Inhibition,,18.1%
Cc1nc(NCc2ccccc2)c2cnn(-c3ccccc3)c2n1,Inhibition,,26.46%
O=C1OC(c2ccccc2)=NC1=Cc1ccccc1Cl,Inhibition,,40.75%
C=C1CN(C)c2c(C#N)c(-c3ccccc3)c(C#N)c(=N)n21,Inhibition,,-0.89%
C=C1CN(C)c2ncc(C#N)c(=N)n21,Inhibition,,6.99%
Nc1c2c(nc3ccc([N+](=O)[O-])cc13)CCCC2,Inhibition,,14.86%
Cn1c(CNNC(=O)c2ccco2)cc2ccccc21,Inhibition,,2.06%
CC#CCN(Cc1ccccc1)c1nc(N)c(C#N)cc1C#N,Inhibition,,-0.41%
Cc1ccc(CNNC(=O)c2c[nH]c3ccccc23)cc1,Inhibition,,16.69%
Cc1nn(-c2ccccc2)c2nc(C)n3nc(-c4ccccc4)nc3c12,Inhibition,,25.08%
CCOC(=O)c1cc2c(N)c3c(nc2nc1C)CCCC3,Inhibition,,17.4%
O=C(NNC(Cc1ccccc1)Cc1ccccc1)c1cc2ccccc2[nH]1,Inhibition,,19.79%
Nc1c2c(nc3c1C(c1ccc(O)cc1)c1c(ccc4ccccc14)O3)CCCC2 (stereo not given),Inhibition,,34.08%
CCOC(=O)c1c(C)nc(/N=N/c2nc(C)c(C(=O)OCC)c(-c3ccccc3)c2C#N)c(C#N)c1-c1ccccc1,Inhibition,,18.37%
Br.C#CCNCC,Inhibition,,-1.53%
Cc1ccc(C2C(C#N)=C(N)Oc3c2ccc2ccccc32)cc1 (stereo not given),Inhibition,,20.41%
CCOC(=O)C1=C(C)Nc2nc3c(c(N)c2C1c1cccc(OC)c1)CCCC3 (stereo not given),Inhibition,,-3.28%
OCc1cc2ccccc2[nH]1,Inhibition,,21.95%
Cn1c(CO)cc2cc(OCCCC3CCN(Cc4ccccc4)CC3)ccc21,Inhibition,,9.54%
C#CCN(C)c1nc(OC)c(C#N)c(-c2ccccc2)c1C#N,Inhibition,,2.05%
COc1ccc(-c2cc(-c3cc4ccc(OC)cc4nc3Cl)cc(=O)[nH]2)cc1,Inhibition,,-1.54%
N#CC1=C(Cl)Oc2c(ccc3ccccc23)C1c1ccccc1[N+](=O)[O-] (stereo not given),Inhibition,,2.78%
